# Test results from the RNAGym collection of RNA variant scans (doi:10.7554/elife.90254).
# The source gives no read counts; variants with many changes may rest on few reads.
# B1: LINE1-mini (parent)
# chain: GGCAGAGCUCAACACAGCGUGGCAAAGUGGCUGUGGCUAGACUGCC
# Variants of: B1
# Assay: self-cleavage, relative activity (ratio to wild type); higher = more cleavage; in vitro, sequencing; the parent is a self-cleaving ribozyme
row,Variant,self-cleavage
1,A11G G22U G27A,0.1
2,A11G G27A U28A G30A,0.03
3,A11G G27C C42A,0.06
4,A11G G27C G33A,0.02
5,A11G G29A C31U G44A,0.06
6,A11G G29A G30U A39G A41C,0.01
7,A11G G29C U34C C42U,0
8,A11G G29C U34C G36A G40C,0.01
9,A11G G29U G36U,0.02
10,A11G G29U U38A,0.01
11,A11G G30A A39U,0.01
12,A11G G30C G40U,0.02
13,A11G G30C U43C,0
14,A11G G33C A41U,0
15,A11G G33U U34A C37U,0
16,A11G G33U U38C,0.01
17,A11G G33U U43A,0.02
18,A11G G35C C37U G40U,0
19,A11G G35U C42U,0.06
20,A11G G35U C45G,0.05
21,A11G G36C C37U C46G,0.02
22,A11G G36U C42G,0.01
23,A11G U20C C31U,0.02
24,A11G U20C U28G C37A,0.01

row,Variant,self-cleavage
1,A11G U28C C37G,0
2,A11G U32A G35C C46G,0.01
3,A11G U32C C37U G40U C42U,0.02
4,A11G U32G C37A,0.01
5,A11G U34A A41G,0.01
6,A11U A12C A24U C31U C46G,0.02
7,A11U A12G G30C C46A,0.06
8,A11U A12G G33C,0.02
9,A11U A12G G35U,0
10,A11U A12U C15A,0.02
11,A11U A12U G22U,0.05
12,A11U A12U G27C,0.08
13,A11U A12U G27U,0.05
14,A11U A12U G30U G36U,0
15,A11U A14C G17C G40U,0.04
16,A11U A14G A39U,0.07
17,A11U A14G G19A,0.01
18,A11U A14G U32C G40C,0.01
19,A11U A14G U38A,0.03
20,A11U A16C C18G,0.02
21,A11U A16U A24U A26G G27C,0.02
22,A11U A16U C45A,0.04
23,A11U A16U G17C A25G G36C C46G,0.01
24,A11U A16U G19A G27A C45A,0.02

row,Variant,self-cleavage
1,A11U A16U U28C U32A G36A,0.02
2,A11U A24C C31G U34C A41U,0.02
3,A11U A24C G35C,0.05
4,A11U A24G A26G,0.51
5,A11U A24G U28C C42A,0
6,A11U A24U G35A,0.04
7,A11U A25U C42A,0.02
8,A11U A26C G36U C37U U43A,0
9,A11U A26G C46A,0.02
10,A11U C13A A14U U32A C42G,0.03
11,A11U C13A A41U C46U,0.02
12,A11U C13A G27C G29U,0.02
13,A11U C13A U34A,0.01
14,A11U C13G A25U A26C C42U,0.03
15,A11U C13G A39U C42A,0.03
16,A11U C13U G17A U20G,0.01
17,A11U C13U U20C G44C,0.04
18,A11U C13U U28A G44U,0.01
19,A11U C15A A26U,0.04
20,A11U C15A C23A U43G,0.01
21,A11U C15A C23U,0.04
22,A11U C15A G22A,0.06
23,A11U C15A U20G G40C,0
24,A11U C15G U43A C45U,0.09

row,Variant,self-cleavage
1,A11U C15U G22A G29C,0.59
2,A11U C15U G29C A41G,0.05
3,A11U C15U G30U G35C,0.05
4,A11U C18G G19A A26U G44A,0.01
5,A11U C18G G33A G35C A39C,0
6,A11U C18U A25G,0.03
7,A11U C18U C46G,0.05
8,A11U C18U U20C G22A A25U G35C G36A,0.01
9,A11U C18U U28C U38C A39U G44A,0.01
10,A11U C23A U28A,0.07
11,A11U C23U G36A,0
12,A11U C31G C37G,0.01
13,A11U C31U A39U C45G,0.02
14,A11U C31U U32C,0.02
15,A11U C37U A39U C45U,0.01
16,A11U C42G U43C,0.03
17,A11U C45A C46U,0.03
18,A11U G17A C23A G35C,0
19,A11U G17A G27C,0.04
20,A11U G17A G30A,0
21,A11U G17C U20C C37G,0
22,A11U G17U C37U G44C,0
23,A11U G17U G29U U32C,0.04
24,A11U G17U G30A G36U,0.01

row,Variant,self-cleavage
1,A11U G17U G30C G35A,0
2,A11U G17U G40C,0.01
3,A11U G17U U34G,0.02
4,A11U G19A A25U A39U,0.03
5,A11U G19A A26U G27A G33C,0.01
6,A11U G19A G21A G22A C31A,0.02
7,A11U G19A G21U U43G,0
8,A11U G19A G27A U28A U38A G40C C45G,0.01
9,A11U G19C A25G,0.05
10,A11U G19C C23U G36C C37G,0
11,A11U G19C G22U A24G G40U,0
12,A11U G19C G29C A41G,0.01
13,A11U G19C U43A G44C,0.01
14,A11U G19U G22C G27C C46A,0.03
15,A11U G21A U28C G30U U38G C42U,0.01
16,A11U G21C G29C G36A G44C,0.03
17,A11U G21U C31A,0.02
18,A11U G22A G29U,0.19
19,A11U G22C A25C,0.04
20,A11U G22U A25G G27C G29C U38G,0
21,A11U G22U G29A G35A,0.03
22,A11U G22U G30A U32C,0.02
23,A11U G27A G35U,0.03
24,A11U G27A G36U,0.02

row,Variant,self-cleavage
1,A11U G27A U28A C45U,0.08
2,A11U G29A U34C,0.04
3,A11U G29A U38C,0.03
4,A11U G29C C31G,0.03
5,A11U G29U G30U,0.17
6,A11U G30A G35A C37A C45A,0.02
7,A11U G30A U32C,0.02
8,A11U G30U C46A,0.09
9,A11U G30U U32A,0.01
10,A11U G33C G35A,0
11,A11U G33U U43A C46U,0.02
12,A11U G35A C37U,0.02
13,A11U G35C A41C,0.01
14,A11U G44U C45U,0.03
15,A11U U20C A26U,0.06
16,A11U U20C C42U,0.06
17,A11U U20C G30C G35C,0.03
18,A11U U20G G29U C31G,0.01
19,A11U U28A C45U,0.1
20,A11U U28C C45G,0
21,A11U U28C G30U,0.15
22,A11U U32C C42G,0.03
23,A11U U32C C46A,0.03
24,A12C A14C C18G G33U U38A,0.01

row,Variant,self-cleavage
1,A12C A14C G21U G33A,0.03
2,A12C A14G A16C G44A,0.02
3,A12C A14G C18G,0.01
4,A12C A14G G19A,0
5,A12C A14G U43A,0.04
6,A12C A16C A39U,0.03
7,A12C A16G C18G G19A,0
8,A12C A16G C37U,0.02
9,A12C A16G C42A,0.04
10,A12C A16G U20G G21U U28G,0.01
11,A12C A16U C23A U34G C42G U43G,0
12,A12C A16U C45G,0.03
13,A12C A16U G17A G22A C31G,0.01
14,A12C A16U G17U C31A G36C,0.01
15,A12C A16U U32C G35U,0.02
16,A12C A24U A25G C37A C42A,0
17,A12C A24U A26U G36U,0
18,A12C A25C C46U,0.05
19,A12C A25C U32G C46U,0.01
20,A12C A25G C31A U34A,0
21,A12C A25U G29U G44C C46U,0.03
22,A12C A25U G36C,0
23,A12C A26G C45U C46A,0.01
